These are yes or no findings as the source states them, for the method shown. Binding seen in cells or lysates may run through a third protein. Some results given as binding are weak or reduced against the parent protein; the word gives no strength. For some assays here: Where a sequence is shown, tags or fusion partners need not be part of it.

Chains of the proteins cited; added tags and fusions are not shown.
UniProt Q9BUL8: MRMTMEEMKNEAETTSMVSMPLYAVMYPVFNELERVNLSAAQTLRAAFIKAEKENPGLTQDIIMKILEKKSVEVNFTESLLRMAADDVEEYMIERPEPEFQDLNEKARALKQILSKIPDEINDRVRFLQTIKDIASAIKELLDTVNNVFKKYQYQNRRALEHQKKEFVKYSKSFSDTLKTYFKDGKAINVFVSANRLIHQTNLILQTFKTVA

Assay [1] deals with FLAG-tagged cerebral cavernous malformation 3 (CCM3) protein (human) (UniProt Q9BUL8). The assay is described as follows: co-IP; anti-FLAG (M2, protein G-Sepharose) immunoprecipitates of lysates of HEK293 cells stably expressing FLAG-CCM3 and transfected with HA-striatins; HA immunoblot, normalised to expression of the HA-constructs in the lysates. A general note: In western blotting, separated proteins are transferred to a membrane and probed.

In assay [2] the target is T1, HA-tagged wild-type striatin (human) (UniProt O43815).
T1 sequence: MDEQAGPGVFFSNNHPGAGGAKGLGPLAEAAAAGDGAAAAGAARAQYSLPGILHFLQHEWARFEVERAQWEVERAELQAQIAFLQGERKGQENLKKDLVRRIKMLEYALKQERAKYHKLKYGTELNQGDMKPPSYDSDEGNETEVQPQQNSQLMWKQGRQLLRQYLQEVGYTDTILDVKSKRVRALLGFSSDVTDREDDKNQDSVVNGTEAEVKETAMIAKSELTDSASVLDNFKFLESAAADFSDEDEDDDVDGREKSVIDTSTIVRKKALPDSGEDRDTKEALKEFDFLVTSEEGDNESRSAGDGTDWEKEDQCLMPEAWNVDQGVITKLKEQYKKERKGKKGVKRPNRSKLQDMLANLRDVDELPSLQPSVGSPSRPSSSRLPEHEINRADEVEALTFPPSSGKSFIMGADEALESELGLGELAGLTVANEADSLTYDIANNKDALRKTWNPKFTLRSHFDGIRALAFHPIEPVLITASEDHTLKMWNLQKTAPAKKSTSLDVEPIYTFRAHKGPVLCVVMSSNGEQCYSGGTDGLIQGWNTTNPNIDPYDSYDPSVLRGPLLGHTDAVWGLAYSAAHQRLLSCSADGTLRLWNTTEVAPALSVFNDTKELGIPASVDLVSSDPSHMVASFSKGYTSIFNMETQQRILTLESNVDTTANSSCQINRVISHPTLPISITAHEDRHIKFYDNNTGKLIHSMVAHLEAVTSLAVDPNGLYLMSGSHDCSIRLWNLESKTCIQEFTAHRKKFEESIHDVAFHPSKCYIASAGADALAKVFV
The assay is described as follows: co-IP; anti-HA immunoprecipitates (12CA5 with protein A-Sepharose, or F7 anti-HA-agarose when probing for Mst3 or Mst4; 1.5 h, 4°C) of lysates (1% Nonidet P-40, 0.135 M NaCl, 10% glycerol, 20 mM Tris pH 8.0) of HEK293 cells transfected with HA-striatins; endogenous partners by immunoblot, partner/HA-striatin ratio by chemilumimager against wild type; 50 mM NaF and 100 nM okadaic acid in the lysis buffer in the phosphorylation experiments.

Assay [3] addresses HA-tagged Δ(148-166) striatin (human) (UniProt O43815). Described as above.
In assay [4] the target is T2, HA-tagged Δ(53-66) striatin (human) (UniProt O43815).
T2 sequence: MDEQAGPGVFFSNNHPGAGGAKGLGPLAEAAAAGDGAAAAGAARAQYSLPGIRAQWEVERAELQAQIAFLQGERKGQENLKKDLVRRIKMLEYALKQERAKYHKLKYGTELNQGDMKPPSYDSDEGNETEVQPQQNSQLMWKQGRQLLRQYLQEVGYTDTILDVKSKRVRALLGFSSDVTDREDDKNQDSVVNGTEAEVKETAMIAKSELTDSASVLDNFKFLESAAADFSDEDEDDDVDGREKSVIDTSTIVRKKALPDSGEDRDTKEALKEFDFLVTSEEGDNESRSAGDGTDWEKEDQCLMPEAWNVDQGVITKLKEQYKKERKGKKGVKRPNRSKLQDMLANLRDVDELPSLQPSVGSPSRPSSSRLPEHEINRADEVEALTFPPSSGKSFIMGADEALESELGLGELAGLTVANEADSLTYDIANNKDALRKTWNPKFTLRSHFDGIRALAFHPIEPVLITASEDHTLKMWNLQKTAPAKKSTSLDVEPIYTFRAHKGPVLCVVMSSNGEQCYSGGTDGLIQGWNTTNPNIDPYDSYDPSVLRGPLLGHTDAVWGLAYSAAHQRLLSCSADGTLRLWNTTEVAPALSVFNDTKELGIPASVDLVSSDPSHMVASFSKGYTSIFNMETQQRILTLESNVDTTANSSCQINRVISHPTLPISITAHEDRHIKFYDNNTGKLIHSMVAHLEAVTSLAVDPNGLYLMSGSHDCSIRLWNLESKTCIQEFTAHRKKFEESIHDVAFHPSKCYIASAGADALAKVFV
The assay is described as above.

Assay [5] has as its target T3, HA-tagged Δ(70-116) striatin (human) (UniProt O43815).
T3 sequence: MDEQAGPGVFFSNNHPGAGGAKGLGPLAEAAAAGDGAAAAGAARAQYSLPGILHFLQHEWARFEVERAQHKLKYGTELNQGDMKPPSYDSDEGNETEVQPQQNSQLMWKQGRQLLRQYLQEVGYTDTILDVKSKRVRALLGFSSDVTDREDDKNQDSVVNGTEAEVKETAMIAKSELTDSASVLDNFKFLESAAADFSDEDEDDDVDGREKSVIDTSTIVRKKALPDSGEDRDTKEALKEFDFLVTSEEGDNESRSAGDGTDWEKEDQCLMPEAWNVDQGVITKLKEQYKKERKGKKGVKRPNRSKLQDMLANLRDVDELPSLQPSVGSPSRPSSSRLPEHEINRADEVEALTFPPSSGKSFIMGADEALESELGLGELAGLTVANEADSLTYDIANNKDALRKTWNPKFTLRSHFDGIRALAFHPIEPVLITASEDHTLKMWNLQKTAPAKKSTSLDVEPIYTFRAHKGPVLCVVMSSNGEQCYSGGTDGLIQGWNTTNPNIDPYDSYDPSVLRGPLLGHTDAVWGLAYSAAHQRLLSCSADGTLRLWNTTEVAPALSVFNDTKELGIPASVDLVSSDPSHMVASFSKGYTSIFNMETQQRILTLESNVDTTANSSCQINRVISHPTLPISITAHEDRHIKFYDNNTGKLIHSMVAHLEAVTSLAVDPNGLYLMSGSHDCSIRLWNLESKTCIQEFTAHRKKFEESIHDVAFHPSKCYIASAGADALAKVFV
Described as above.

B1: HA-tagged wild-type striatin (protein, UniProt O43815 1-780)
chain: T1 sequence
B1: the binding result in assay [1] is “binds”.

B2: zinedin (protein, UniProt Q9NRL3 1-753)
chain: MMEERAAAAVAAAASSCRPLGSGAGPGPTGAAPVSAPAPGPGPAGKGGGGGGSPGPTAGPEPLSLPGILHFIQHEWARFEAEKARWEAERAELQAQVAFLQGERKGQENLKTDLVRRIKMLEYALKQERAKYHKLKFGTDLNQGEKKADVSEQVSNGPVESVTLENSPLVWKEGRQLLRQYLEEVGYTDTILDMRSKRVRSLLGRSLELNGAVEPSEGAPRAPPGPAGLSGGESLLVKQIEEQIKRNAAGKDGKERLGGSVLGQIPFLQNCEDEDSDEDDELDSVQHKKQRVKLPSKALVPEMEDEDEEDDSEDAINEFDFLGSGEDGEGAPDPRRCTVDGSPHELESRRVKLQGILADLRDVDGLPPKVTGPPPGTPQPRPHEDVFIMDTIGGGEVSLGDLADLTVTNDNDLSCDLSDSKDAFKKTWNPKFTLRSHYDGIRSLAFHHSQSALLTASEDGTLKLWNLQKAVTAKKNAALDVEPIHAFRAHRGPVLAVAMGSNSEYCYSGGADACIHSWKIPDLSMDPYDGYDPSVLSHVLEGHGDAVWGLAFSPTSQRLASCSADGTVRIWDPSSSSPACLCTFPTASEHGVPTSVAFTSTEPAHIVASFRSGDTVLYDMEVGSALLTLESRGSSGPTQINQVVSHPNQPLTITAHDDRGIRFLDNRTGKPVHSMVAHLDAVTCLAVDPNGAFLMSGSHDCSLRLWSLDNKTCVQEITAHRKKHEEAIHAVACHPSKALIASAGADALAKVFV
On to B2, for which the binding result was “binds” in assay [2], “binds” in assay [3], “no binding” in assay [4] and “no binding” in assay [5].
